Experimental data as given in PubChem BioAssay AID485364 (National Center for Advancing Translational Sciences (NCATS), 2010).
The campaign covered roughly 360,000 compounds. About 11,000 (3.1%) were called active. Inconclusive results, whose numbers are uncertain, are shown with a selection of clear calls. Calls come from the whole dose curve; as a rule, active = well fitted inhibition curve with a large enough effect; inconclusive = small, poorly fitted or top-dose-only effect; inactive = no such curve, though single readings can be large or run the other way. No potency is given beside an inconclusive call; the fits are too rough.

Target: Schistosoma mansoni thioredoxin glutathione reductase (TGR) (UniProt Q962Y6)
Test: qHTS Assay for the Inhibitors of Schistosoma Mansoni Peroxiredoxins; note: nearly all actives have a fitted effect of over 60% in size
Settings: purified TGR, DTNB reduction, TNB absorbance 405 nm; activity change, negative = inhibition: at 114 µM (top of the series) unless noted
Summary of the method: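 TGR 20 nM + NADPH 100 uM (dispensed conc.), cpd preinc 15 min RT; start with NADPH (500 uM addition) then DTNB (15 mM addition). Kinetic TNB absorbance, 405 nm filter. Four-parameter Hill fit across titration.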
% is set by controls: 0 for no effect and ±100 for the full control effect; potency is the fitted concentration of half-maximal effect; tags give direction and shape of the fitted curve.

SMILES | Potency | activity change, negative = inhibition
COc1cc(-c2nc(-c3ccc4c(c3)-c3ccccc3S4(=O)=O)c(-c3ccccc3)[nH]2)cc(OC)c1OC | active: 56.2 µM | –
N=C1S/C(=C\c2ccco2)C(=O)N1c1nccs1 | active: 22.4 µM | –
COc1cc(C2C(=O)N(C3CCCC3)CC(=O)N2Cc2ccco2)ccc1OC(C)C (stereo not drawn) | inconclusive [inhibitor, partial curve] | –
COc1ccc(C(=O)C2CCCN(C(=O)c3cccc(N4CCCC4=O)c3)C2)cc1OC (stereo not drawn) | – | inactive: -31.1%
CNC(=O)COc1ccc(S(=O)(=O)Nc2ccc(OC)cc2)cc1 | – | inactive: -11.5%
CC(=O)C1=C(C)OC(N)=C(C#N)C1c1cccc([N+](=O)[O-])c1 (stereo not drawn) | active: 14.1 µM | –
Cc1[nH]c(=O)[nH]c(=O)c1/C=N/NC(=O)[C@H](C)N | active: 50.1 µM | –
O=C(NC1CCCC1)C(c1ccc(O)cc1)N(CC1CCCO1)C(=O)C1COc2ccccc2O1 (stereo not drawn) | – | inactive: 1.15%
COc1ccc(-c2noc(CN3CCCC(OCc4ccccn4)C3)n2)cc1 (stereo not drawn) | active: 35.5 µM | –
O=C(O)CCc1ccc(-c2ccccc2)o1 | active: 1.41 µM | –
Cc1nn(-c2cc(C(F)(F)F)ccc2Cl)c2nc(C(Cl)(Cl)Cl)[nH]c(=O)c12 | active: 20 µM | –
COc1ccc(NC(=S)Nc2ccccn2)cc1 | inconclusive [inhibitor, full curve] | –
COc1ccc(-n2c(O)c(/C=N/NS(=O)(=O)c3cccc([N+](=O)[O-])c3)c3ccccc3c2=O)cc1OC | inconclusive [inhibitor, full curve, poor fit] | –
O=c1cc(CO)oc(C(Nc2ccccn2)c2ccccc2Cl)c1O (stereo not drawn) | inconclusive [inhibitor, single point] | –
COc1ccc(N(C(=O)c2cccnc2)S(=O)(=O)c2ccc3c(c2)n(C)c(=O)n3C)cc1 | inconclusive [inhibitor, full curve, poor fit] | –
CC1CCCC(C)N1CCCNC(=O)Cn1ncc2c3ccccc3n(C)c2c1=O (stereo not drawn) | inconclusive [inhibitor, partial curve] | –
COc1cccc(N2C(=O)NC(=O)C3(Cc4cc(C)ccc4N(C)C3)C2=O)c1 (stereo not drawn) | inconclusive [inhibitor, full curve] | –
O=C(NCc1ccccn1)c1ccc(CS(=O)(=O)Cc2ccc(Cl)cc2)o1 | active: 28.2 µM | –
Cn1c(=O)c2c(nc(CN3CCN(C(=O)c4ccco4)CC3)n2CC(N)=O)n(C)c1=O | inconclusive [inhibitor, single point] | –
CCCNC(=O)COC(=O)c1ccccc1C(=O)c1ccc(Cl)c([N+](=O)[O-])c1 | inconclusive [inhibitor, partial curve] | –
O=C(O)c1ccc2c(c1)C(=O)/C(=C\c1ccco1)C2=O | active: 7.08 µM | –
Cc1cc(O)c(C(c2ccccc2)N2CCN(c3ccccc3F)CC2)c(=O)n1Cc1ccco1 (stereo not drawn) | active: 3.16 µM | –
Cc1ccc(C)c(OCc2cc(C(=O)N(C)Cc3nccs3)no2)c1 | – | inactive: -1.18%
Cc1ccccc1-c1nc(CS(=O)(=O)CC(=O)Nc2c(C)cccc2C)c(C)o1 | inconclusive [inhibitor, full curve] | –
Cn1cccc1CC(=O)N/N=C/c1ccc(C(C)(C)C)cc1 | inconclusive [inhibitor, partial curve] | –

SMILES | Potency | activity change, negative = inhibition
COc1cc(NC(=O)CN(C)S(=O)(=O)c2ccc3c(c2)CCCC(=O)N3)cc(OC)c1OC | – | inactive: -9.94%
Cc1ccc(C)c(NC(=O)Cn2cc(S(=O)(=O)N3CCCC3)c(S(=O)(=O)N3CCCC3)c2)c1 | – | inactive: -10.5%
Cc1ccccc1CC1(CO)CCCN(C(=O)CCN2CCCO2)C1 (stereo not drawn) | – | inactive: -17.4%
CCOC(=O)C1CCN(C2=C(NS(=O)(=O)c3ccc(Cl)cc3)C(=O)c3ccccc3C2=O)CC1 | inconclusive [inhibitor, partial curve] | –
O=C(O)C1=CC[C@@H](c2ccc(Cl)cc2)N(S(=O)(=O)c2ccc(Cl)cc2)[C@H]1c1ccc(F)cc1 | inconclusive [inhibitor, partial curve] | –
Cn1c(C(=O)N2CCN(C(=O)c3ccco3)CC2)cc2c(=O)n3ccccc3nc21 | active: 44.7 µM | –
CC(OC(=O)CN1C(=O)NC2(CCCC2)C1=O)C(=O)c1ccccc1 (stereo not drawn) | – | inactive: -7.19%
O=C(NCc1ccccn1)c1ccc(OC2CCN(Cc3ccccc3)CC2)cc1 | – | inactive: 69.1%
CCn1c(SCC(=O)NCc2ccco2)nc2c(c1=O)SC(C)C2 (stereo not drawn) | inconclusive [inhibitor, single point] | –
Cc1ccccc1COc1ccc(/C(O)=C2/C(=O)C(=O)N(CCCn3ccnc3)C2c2ccco2)cc1 (stereo not drawn) | inconclusive [inhibitor, partial curve] | –
COC1=C(C)C(O)=C(C(=O)/C=C/c2ccccc2)C(=O)C1(C)C | inconclusive [inhibitor, full curve] | –
CCN(Cc1ccccc1)C(=O)Cn1cc2c(n1)CCCC2 | – | inactive: 4.61%
Cc1ccc(-c2nnn(CC(=O)N(c3ccccc3)C(C(=O)NCC3CCCO3)c3ccc(Cl)cc3)n2)cc1 (stereo not drawn) | inconclusive [inhibitor, single point] | –
O=C(c1ccc([N+](=O)[O-])s1)N1CCN(c2ccccn2)CC1 | inconclusive [inhibitor, partial curve] | –
CC1=C(C(=O)OCc2ccccc2)C(c2ccc(C)o2)C2=C(CCCC2=O)N1 (stereo not drawn) | inconclusive [inhibitor, partial curve] | –
COc1ccc(-c2cc(-c3ccc(O)cc3)nc(N)c2C#N)cc1 | – | inactive: -19.6%
Oc1c(Br)cc(C=Nc2ccc3nc(-c4ccccc4)[nH]c3c2)c(O)c1Br | active: 17.8 µM | –
CCC1CCCCN1C(=O)c1ccc(OC2CCN(C(=O)C3CC3)CC2)cc1 (stereo not drawn) | inconclusive [inhibitor, partial curve] | –
COC(=O)c1ccc(C2C(C(=O)c3cc4ccccc4o3)=C(O)C(=O)N2CCN2CCOCC2)cc1 (stereo not drawn) | inconclusive [inhibitor, partial curve] | –
O=C1NCCCC1C(=O)Nc1ccccn1 (stereo not drawn) | – | inactive: 8.75%
O=C(NCc1ccco1)c1ccc2c(c1)C(=O)N(Cc1ccccc1)C2=O | – | inactive: -14.6%
N#CC1=C2SCN(C3CCCCC3)CN2C(=O)CC1c1ccc(F)cc1 (stereo not drawn) | active: 3.55 µM | –
CCOC(=O)Nc1sc(NS(=O)(=O)c2ccc(C)cc2)nc1C | inconclusive [inhibitor, partial curve] | –
Cn1cc(CN2CCC(C(O)c3cccs3)CC2)c(-c2cccc(Cl)c2)n1 (stereo not drawn) | – | inactive: 6.33%
O=C(NCC(c1ccco1)N1CCCC1)c1cccc(NS(=O)(=O)c2ccccc2)c1 (stereo not drawn) | inconclusive [inhibitor, partial curve] | –

SMILES | Potency | activity change, negative = inhibition
COc1cc2cc(CCOC(=O)c3ccc(C#N)cc3)oc(=O)c2cc1OC | inconclusive [inhibitor, partial curve] | –
COC(=O)CC(c1ccc(F)cc1)n1c(C)ccc1C (stereo not drawn) | inconclusive [inhibitor, partial curve] | –
Cc1cc(C)nc(NS(=O)(=O)c2ccc(Br)s2)c1 | inconclusive [inhibitor, partial curve] | –
O=C(COC(=O)C12CC3CC(CC(C3)C1)C2)N1CCN(S(=O)(=O)c2ccccc2)CC1 | – | inactive: -15.1%
COc1ccccc1C(=O)Nc1ccc2c(c1)nc1n2CCN(C2CCCCC2)C1 | active: 25.1 µM | –
CC1CCCC(NC(=O)c2ccc3snnc3c2)C1C (stereo not drawn) | – | inactive: -10.9%
COc1cc2c(cc1OC)C(c1cc(OC)c(O)c(OC)c1)CC(=O)N2 (stereo not drawn) | inconclusive [inhibitor, partial curve] | –
Cc1ccc(C(=O)NCN2CCN(c3ccc(F)cc3)CC2)cc1 | inconclusive [inhibitor, partial curve, poor fit] | –
Cn1cccc1Cc1nnc(SCC(=O)NCc2ccccc2)n1-c1ccc(F)cc1 | inconclusive [inhibitor, partial curve] | –
O=C(Nc1cccc2cccnc12)c1cccnc1 | – | inactive: -1.43%
CCN(CC)C(=O)Cn1cc(S(=O)(=O)CC(=O)Nc2ccc(C(N)=O)cc2)c2ccccc21 | inconclusive [inhibitor, partial curve] | –
O=C(Cn1cncn1)c1ccc(F)cc1F | – | inactive: -0.723%
O=c1[nH]c(=O)n(Cc2ccccc2)c(O)c1C=Nc1ccc(CN2CCOCC2)cc1 | active: 35.5 µM | –
COc1ccc(C(=O)Nc2nc3cc4c(cc3s2)OCO4)c(OC)c1 | – | inactive: 18.8%
O=C1NC(=O)C(=Cc2ccc(SC3CCCCC3)o2)C(=O)N1 | active: 39.8 µM | –
COc1ccc(N2C3=C(CC4=C2CC(C)(C)CC4=O)C(=O)CC(C)(C)C3)cc1 | inconclusive [inhibitor, full curve] | –
O=C(NCc1ccco1)c1cccn2c(=O)c3c4c(sc3nc12)CCCC4 | active: 12.6 µM | –
CC[n+]1c(/C=C2/C=C(C)CC(C)(C)C2)sc2ccc(OC)cc21 | active: 17.8 µM | –
Cc1noc(C)c1CS(=O)(=O)c1ccc([N+](=O)[O-])cc1 | inconclusive [inhibitor, partial curve] | –
CCOc1ccc(OCC(=O)c2c(O)c3ccccc3oc2=O)cc1 | active: 17.8 µM | –
O=C(NC(NNc1ccc([N+](=O)[O-])cc1)(C(F)(F)F)C(F)(F)F)c1ccc(Cl)cc1 | active: 22.4 µM | –
CCOC(=O)C1CCN(S(=O)(=O)c2ccc3c(c2)CC(=O)N3C)CC1 | – | inactive: -21.6%
Cc1cccc(NC(=O)c2cnccn2)c1 | inconclusive [inhibitor, partial curve] | –
